Measured values: the RNAGym collection of RNA variant scans (doi:10.7554/elife.90254)
Read counts are not given, so values of variants with three or more changes are uncertain.

B1: OR4K15 (parent)
chain: GUUAACGGUCAUAGGCCAUGGAAACUAGGAGCACCAUUUCGCUGCCAGUGAAGAAAUGAACAAAGAAAAUCUGGGCCAGGCAGGCAUCAAAAGAAAUAGUCUUGCGCUCAACCAGAAAGUCUGUAAUCAUUUUAAGGGUA

Variants of: B1
Experiment: self-cleavage, relative activity (ratio to wild type); higher = more cleavage; in vitro, sequencing; the parent is a self-cleaving ribozyme

Variant	self-cleavage
A18C A59G A118G	0.4
U43C A56G U87C A90G A92G A125G	0.02
A13U U37C U38C U102G A129C	0.36
A60G A78U A92G U108C A116G	0.01
U26A G79A A94G A110G	0.04
A54G A59G A68G U103C	0.3
A13G A95G U100C	1.62
A11U A59G A60U A63G	0.43
A5G A91G U108C U127C	0
A118G U131C A135G	0.19
U2C A95G A126U U130C	0.59
U38C C113U A117G	0.07
A64G A89G A114U	0.04
A30G A56G A125G	0.6
U12A A117G A126U U131C	1.31
A66G A68G A95G A96U A134U	1.07
A54G U108C G138A	0.02
U2C A52G U127C	0.67
U9C A24G U72C	0.4
A11G A33G A91U	1.97
U9A U70A A96G	1.01
A22G U26C A68G	1.23
U9G U26C G28A	1.15
U19C A98G U100C U108C	0.01

Variant	self-cleavage
A55G A56G U100A	0.84
U9C A22G A47G U132C	0.86
U9A A66G A89G A114G	0.26
A47U A86G A117G	1.05
C6U A94G U127C	0.66
A60G U87C A110G	0.08
A11G A22U A69U	0.89
A23G U37C U38C U131C A135U	1.3
A11G U43A A55G U122C C128A	1.64
A47U A52G A67G U130C	0
U2C U3C A51G U102C A110U	1.23
A22G C42U U120C A140G	0.61
U38G A78G A94U A118G U131C U132C	0.18
A11U U87C A110U	0.89
U38A A51G A98U	1.9
A33U G75A A91G	0.1
A11G A33C A118G U122C	0.69
A5C A33C A78G	0.59
A36U U37C A60G U87C	0.33
A11G G20A U100A	0.64
A59G A78U A82G	0.09
A78G A91C A117U	0.07
U2C A91G U97C	1.17
U12A A23G C45G	0.99

Variant	self-cleavage
A68G G83A A89C U122G	2.47
A5G A22G A68U U108C A114G	0.02
U39C A95G U108C A126G U131C	0
A60G A116G A126G	0.24
U19A A52G A60G	1.21
A5G U38C U100C A126C	0.96
A5G U102C U120C	1.3
U9C A11G A36U A110U	0.71
A51U A55C A60G A92U A96G A111U U122C	0.02
U26G U72C A110G A111G	0.07
A111G A118C U132C	0
A23G A33U A62U A68G U130A	1.28
A18G A90U U127C	2.04
A11U A51G U120C	0.91
A55G A92G A111G	0.02
A68G U87A U132C	1.26
A24G A111G U120A	0.02
G29A A52G A126G	1.49
U12C U39C A52G A59G A64U A91G	0.24
A13G A78G U87A A96G	0.53
U49A A64G U103C	1.31
U39C A52G U103C	0.65
G41A A51U A118G U132C	0.92
A30U A64U U127C	0.96

Variant	self-cleavage
A22G U38C U49C A51G A68G	1.03
A22U A24G U57C	0.87
U49C A62G A110G	0.07
A24U A110G A116G	0.06
U37C A55G U100A	1.13
U26C A36G U87C	1.72
A23U A24G U108A	0.03
U70C A86U A98G U100C	0.23
A95G U139C A140U	2.28
A64G A69G U130C	0.36
U19C A62G A86G A89G	1.32
A52G A56G U72A A117U	0.33
A89U A98U U102C	2.33
U3C A27G U131C	0.92
U2C A11U C16G	0.7
U72C A89G A91G	0.12
U19A A24G A54G A64U A68G U130C	0.81
C16U A36G U72C	0.21
A23U A51G A95G A116U	0.04
U2C U9C A24G C45G A117G	1.56
U9C U72A U124C	0.09
A47U U57A A116U	0.02
C6A A22G A94G A118G	0.45
A27G A82G A125G	0.14

Variant	self-cleavage
U43C G75U A86U U132G	0.11
A54G C76G A78C A126U	0.06
A22G C35U U70C A91G U103C	0.12
A52G A63G U131C	0.89
A5G A95U A111G U120A U124C	0.02
U12A A24C A63G	1.24
A5U U37C U39C A54G U87C	1.52
A36U U37C A111G U132A	0.02
A11G A36U A54G	0.9
U39C A56U U72G	0.15
A67G A90G A126U	1.18
A52G U72C G73U A90G U108C	0.02
G14A A59G A67G	0.66
U9C G14C A47G A82G	0.56
A33G A78U A94G	0.25
A18G A56G A63G A90G U124C	1.29
U38C A78C U102C	0.56
C42G A51U A95G A96G	0.53
U57C A68G G137U	0.96
C81U A82U A114C A117C	0.02
A22G A56G A66G	1.41
U2C U103C A135U	1.07
U70A A95G U103C A135G	1.05
G75A U102A A111G A117G	0

Variant	self-cleavage
C10A U49C U102A	0.82
U9C U19C A52G A69U A82G A90G U102C	0.49
G50U A55G G106A A117G	0.01
G41U A96G G115A G138U	0.38
G29U U49C A64G A92G	1.82
G7A A22G A52G A89G U131C	0.69
A11G U43C G48A A98G U102C A114U	0.14
A22G C40U A56G	1.19
U49A A111G U130C	0
A5G A18G A78G U102C A110U U130C	1.12
U9C A24G U38C A67G A96G	0.89
U49C A78U U122C	0.13
C45A A116G U124C U127C	0.15
U9C A11G U38C A52G A59G	0.48
A64U A94G A118G U139C	0.91
U9C U43C A59C U131C A140C	0.55
A91U A92G U97C A111U U120C	0
G14A A116G A140G	0.45
A33G U97C U102C	1.6
A94G U103C U108C U120C	0
A67G A94G A98U	1.79
A63U A89U A94G A110G	0.17
U3C A5U U39C A116G	0.26
A4G A95G U127C U130C	1.11

Variant	self-cleavage
A36U A56G A114G A126G	0.02
A18U U49C U108C	0.01
A11U U39C U49C A114G	0.47
U70C A110G A114G	0.03
U9C U100C U132A	0.9
U9A U87C C107U U131C	0.01
A33G A91G A92G	1.12
U19A A59U A90G	1.09
G15A U26C U43C	1.16
U12C G31A U38C A56G G80A A82U	0.07
U39A U70C U102C	1.25
A69G A110G A118G A126G	0
A54C A67G G84A A94U A129C	2.24
A33G A67G U100C U139C	1.95
U38C A94G C121U U124C	0.26
U19C A30G G83A	1.65
A18U U19C U26C A36G A56G A66G	1.07
A23G A36G A54G U57C A67G A86G	0.76
U9C U38A G79A A126G	0.12
C40U A59U U87C U102C	1.85
A24G A62U A66G U131C	1.05
U12C G53A U124C	0.47
U49G A56G A59G A67G A96G U102C U120C	0.78
